In all, about 110,000 compounds were measured (“z-score”: median about -0.1, highest 2% from about 2 on). The list shows a part of the results.

The target of this test is Metabotropic glutamate receptor 8 (Rattus norvegicus) (UniProt P70579). Briefly: mGluR8 Gi/Go-coupled signaling modulation – cell-based, rat, thallium flux, HTS, primary screen (AID 488969). The conditions noted are these: HEK293 rat mGluR8, GIRK (G protein-gated inwardly rectifying potassium channel) thallium flux, FluoZin2; at 10 µM; stronger effect = higher value; submaximal glutamate (EC20) added with thallium.
Chain of UniProt P70579 (P70579 whole entry, looked up): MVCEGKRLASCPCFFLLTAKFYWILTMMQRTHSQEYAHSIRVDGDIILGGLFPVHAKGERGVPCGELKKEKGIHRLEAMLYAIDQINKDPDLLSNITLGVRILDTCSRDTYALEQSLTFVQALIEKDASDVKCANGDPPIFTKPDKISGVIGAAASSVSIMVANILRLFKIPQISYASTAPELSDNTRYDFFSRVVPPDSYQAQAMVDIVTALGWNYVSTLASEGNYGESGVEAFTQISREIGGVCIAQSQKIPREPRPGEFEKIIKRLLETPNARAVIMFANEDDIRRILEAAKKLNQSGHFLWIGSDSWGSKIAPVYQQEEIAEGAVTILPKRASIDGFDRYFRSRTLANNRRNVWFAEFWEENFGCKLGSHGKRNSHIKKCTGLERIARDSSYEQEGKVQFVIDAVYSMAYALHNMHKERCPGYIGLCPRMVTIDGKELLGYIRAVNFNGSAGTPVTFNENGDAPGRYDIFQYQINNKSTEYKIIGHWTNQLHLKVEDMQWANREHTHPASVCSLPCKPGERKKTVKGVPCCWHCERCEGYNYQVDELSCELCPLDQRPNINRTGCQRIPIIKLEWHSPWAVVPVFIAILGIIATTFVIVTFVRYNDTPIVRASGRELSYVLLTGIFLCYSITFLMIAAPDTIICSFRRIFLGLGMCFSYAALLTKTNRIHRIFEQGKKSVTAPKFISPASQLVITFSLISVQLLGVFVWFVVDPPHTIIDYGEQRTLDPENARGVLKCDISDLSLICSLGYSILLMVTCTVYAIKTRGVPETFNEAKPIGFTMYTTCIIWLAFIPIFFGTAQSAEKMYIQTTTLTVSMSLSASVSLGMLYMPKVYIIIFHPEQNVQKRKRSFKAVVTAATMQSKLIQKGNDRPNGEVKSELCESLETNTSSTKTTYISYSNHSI
The compound `CCC1CCc2c(c3ccccc3[nH]c2=O)O1` (centres undefined) registered a z-score of 0.227. In the case of `CN(CC(=O)NCc1ccc2c(c1)OCO2)S(=O)(=O)c1ccc(Br)s1`, the z-score is -0.0602.

Regarding `Cc1n[nH]c(=O)nc1N/N=C/c1ccc(O)c([N+](=O)[O-])c1`, the z-score was -0.137. The same measure for `Cc1ccc(-n2c3nc(=O)[nH]c(=O)c-3cc3cc([N+](=O)[O-])ccc32)cc1C`: -1.35. As to `COc1ccc(N2CCN(CC(=O)Nc3ccc(SC(F)F)cc3)CC2)cc1`, the z-score is -0.669. The same measure for `COCCn1c(C)cc(C(=O)CSc2nnc3scc(-c4ccc(Cl)cc4)n23)c1C`: -0.12; for `COc1ccccc1CNC(=O)C1CCN(S(C)(=O)=O)CC1`: 0.0756.

`O=C(CC1Oc2ccc(Cl)cc2NC1=O)NC1CCCCCC1` (centres undefined) registered a z-score of -0.428.

As for `Cc1ccc(-c2nnc(OCCN3CCOCC3)c3ccccc23)cc1`, the z-score was -0.664. On to `Cc1nnc(OCC(=O)NCCC2=CCCCC2)c2ccccc12`, for which the z-score worked out at 0.283. The same measure for `O=C(OC(c1ccccc1)c1nccc2ccccc12)c1cc([N+](=O)[O-])cc([N+](=O)[O-])c1` (centres undefined): -0.259; for `O/N=C/c1ccc(OCc2ccccc2)c(Br)c1`: 0.388; for `CC(C)Oc1ccc(/C(O)=C2/C(=O)C(=O)N(CCN3CCOCC3)C2c2ccccc2)cc1` (centres undefined): 0.227. Next, `O=C(COC(=O)CC(c1ccccc1)c1ccccc1)NCc1ccc(Cl)cc1`: -0.0225; `Cc1cc2cc(C)c3nnc(SCC(=O)Nc4ccc(S(=O)(=O)N5CCCCC5)cc4)n3c2cc1C`: 0.128.

Consider `O=C(CSc1nnc(Cc2cc(=O)[nH]c(=O)[nH]2)n1-c1ccc(Cl)cc1)NC1CCCC1`, for which the z-score was -0.0944. Next, `CCCCn1nnnc1SCC(=O)NCc1ccco1`: -0.109; `O=C(/C=C/c1ccc2c(c1)OCO2)Nc1nc(-c2ccc(F)cc2)cs1`: -0.18; `CCO/C=C1/C(=O)N(CC)c2ccccc21`: 0.859.

`CCOc1ccc(C2C(C#N)=C(N)Oc3cc(C)n(Cc4ccco4)c(=O)c32)cc1OC` (centres undefined) showed a z-score of -0.0285. The same measure for `CS(=O)(=O)N(CC(=O)NC1CCCCCC1)Cc1ccccc1`: 0.041. On to `Clc1ccc(CON/C=N/c2ncnc3sccc23)cc1`, for which the z-score is -0.0162. Next, `O=c1c2ccccc2nc(/C=C/c2ccc(O)cc2)n1CCc1ccccc1`: -0.0886; `COc1c(S(=O)(=O)NCCN2CCOCC2)ccc(Cl)c1Cl`: 0.459; `O=[N+]([O-])c1ccc(CSc2nnc(SCc3ccccc3)s2)cc1`: 0.0918.

On to `Cc1cccc(/C=N/Nc2cc(N3CCOCC3)nc(N3CCOCC3)n2)c1`, for which the z-score was -0.44. `CCOc1ccc(C2C(C(=O)Nc3ccc(F)cc3)=C(C)Nc3nc(CCCO)nn32)cc1` (centres undefined) had a z-score of 0.0171. The same measure for `O=C(Nc1ccccc1)c1ccccc1OCc1cccc([N+](=O)[O-])c1`: -0.111; for `CC(C)(C)NC(=S)NC(=O)C12CC3CCC(CC(C3)C1)C2`: -0.239.

For the origin of these results see PubChem BioAssay AID488969 (Vanderbilt High Throughput Screening Facility, 2010).
